From PubChem BioAssay AID588342 (National Center for Advancing Translational Sciences (NCATS), 2011)
About 25,000 (6.9%) of roughly 360,000 compounds were called active. This list was built around the results that the source calls inconclusive (neither active nor inactive); the mix of calls is not that of the screen. The call rests on the fitted dose curve; in most records, active means well fitted inhibition curve with a large enough effect; inconclusive means small, poorly fitted or top-dose-only effect; inactive means flat fitted curve, though single readings scatter. Where the call is inconclusive, the potency comes from a doubtful curve fit.

Target: Luciferin 4-monooxygenase (Photinus pyralis) (UniProt P08659)
UniProt P08659, sequence (P08659 whole entry, looked up): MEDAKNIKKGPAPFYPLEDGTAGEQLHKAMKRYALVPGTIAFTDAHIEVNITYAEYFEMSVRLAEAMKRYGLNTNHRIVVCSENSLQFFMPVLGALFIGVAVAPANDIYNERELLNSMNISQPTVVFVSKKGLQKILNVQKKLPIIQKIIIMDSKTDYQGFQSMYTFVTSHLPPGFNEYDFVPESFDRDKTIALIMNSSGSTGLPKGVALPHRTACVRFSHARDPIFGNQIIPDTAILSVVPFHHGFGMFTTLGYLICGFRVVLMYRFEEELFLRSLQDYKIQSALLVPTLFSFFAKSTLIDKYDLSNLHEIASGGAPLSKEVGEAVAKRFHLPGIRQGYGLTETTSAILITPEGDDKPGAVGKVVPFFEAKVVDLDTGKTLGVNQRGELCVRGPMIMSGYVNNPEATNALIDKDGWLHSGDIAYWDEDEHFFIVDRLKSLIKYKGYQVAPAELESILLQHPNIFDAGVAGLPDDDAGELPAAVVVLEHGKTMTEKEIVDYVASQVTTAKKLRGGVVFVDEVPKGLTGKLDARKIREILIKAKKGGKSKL
Assay: qHTS profiling assay for firefly luciferase inhibitor/activator using purifed enzyme and Km concentrations of substrates (counterscreen for miR-21 project); further: nearly all actives have a fitted effect of over 55% in size;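 on activity change, negative = inhibition: plate controls were vehicle for no effect and reference inhibitor for full effect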
Conditions: purified FLuc, luminescence inhibition; series mostly up to 57.5 µM; activity change, negative = inhibition: at the top concentration
Summary of the method: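 Purified P. pyralis luciferase (10nM final) with 10uM D-luciferin and 10uM ATP (Km levels) in 50mM Tris acetate pH 7.5, 10mM Mg acetate, 0.01% Tween-20, 0.05% BSA; qHTS 6-point titration, ~60 µM downward; luminescence read.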
Potency means the concentration at half of the fitted maximal effect; tags describe the fitted curve by direction and shape.

Compound	Potency	activity change, negative = inhibition
CCOC(=O)c1c(C)[nH]c(C(=O)COC(=O)CNC(=O)c2ccccc2Cl)c1C	active: 10.7 µM	
COc1ccc(NC(=O)C2CCCCN2N)cc1OCC(C)C (stereo not drawn)	inconclusive: 37.9 µM [inhibitor, partial curve, poor fit]	
COc1ccc(NC(=O)C2CCC(CNS(=O)(=O)c3csc(C(N)=O)c3)CC2)cc1 (stereo not drawn)		inactive: -4.58%
COCCNC(=S)NNc1ccccc1[N+](=O)[O-]	inconclusive: 37.9 µM [inhibitor, single point]	
Cc1c(C(=O)OC(C)C)sc(N)c1C(=O)OC(C)C	active: 21.3 µM	
COc1ccc(Nc2ncnc3onc(-c4ccc(Cl)cc4)c23)cc1Cl		inactive: 0.849%
CN(C)c1ccc(C(CNC(=O)c2cccs2)N(C)C)cc1 (stereo not drawn)	inconclusive: 19 µM [inhibitor, partial curve]	
N/C(=N\OC(=O)c1ccc(=O)n(Cc2ccccc2)c1)c1ccccn1	inconclusive: 26.9 µM [inhibitor, partial curve, poor fit]	
CCOc1ccc(C2=Nc3ccc(Br)cc3C(c3ccc(N4CCOCC4)cc3)=NN2)cc1	active: 23.9 µM	
Fc1cc(Cl)c(OCc2noc(-c3ccsc3)n2)c(Cl)c1	inconclusive: 8.49 µM [inhibitor, partial curve, poor fit]	
COc1cccc(-c2cc(C(=O)Nc3ccc([N+](=O)[O-])cn3)c3ccccc3n2)c1	inconclusive: 9.53 µM [inhibitor, partial curve]	
CCOC(=O)C1(Cc2ccccc2C)CCCN(C(=O)c2ccoc2)C1 (stereo not drawn)	inconclusive: 23.9 µM [inhibitor, partial curve]	
Cc1cccc(Nc2nc(Cl)ncc2F)c1C		inactive: 4.7%
CCCCn1c(O)c(N=NC(=O)c2ccco2)c2ccccc21	inconclusive: 15.1 µM [inhibitor, partial curve]	
CCc1nn2cc(C(=O)c3cc(Cl)ccc3O)cnc2c1-c1ccc(F)cc1		inactive: 2.12%
O=C(COC(=O)COc1ccccc1)Nc1ncc([N+](=O)[O-])s1	inconclusive: 23.9 µM [inhibitor, partial curve]	
CCOc1ccccc1NC(=O)CSc1nc(=O)n(CCCN2CCOCC2)c2c1CCCC2		inactive: 3.32%
Nc1nnc(SCCOc2cccc(Br)c2)s1	inconclusive: 26.9 µM [inhibitor, partial curve]	
CN1CCN(C(=O)c2cccc(COc3cc(Cl)ccc3Cl)c2)CC1	inconclusive: 19 µM [inhibitor, partial curve]	
Cc1cc(C(C)(C)C)nc2[nH]n(-c3ccccc3)c(=O)c12	inconclusive: 37.9 µM [inhibitor, partial curve, poor fit]	
Cc1cc(C)n(-c2nnc(N3CCN(c4ccccc4)CC3)nn2)n1	inconclusive: 26.9 µM [inhibitor, partial curve, poor fit]	
Cc1ccc(-c2ccc(=O)n(CC(=O)Nc3ccc(C(C)C)cc3)n2)cc1	inconclusive: 26.9 µM [inhibitor, single point]	
CC(C)c1ccc(NC(=O)c2cccc(Br)c2)cc1	active: 3.01 µM	
CC1(C)CC(=O)c2c(-c3cccs3)n[nH]c2C1	inconclusive: 26.9 µM [inhibitor, single point]	
Cc1nnc(SCC(=O)N(CCC#N)c2ccc3c(c2)OCCO3)s1		inactive: 0.691%

Compound	Potency	activity change, negative = inhibition
O=C(Nc1ccc(CN2CCOCC2)cc1)c1ccc(-c2cccc(Cl)c2)o1	active: 16.9 µM	
CC(C)(C)c1ccc(C(=O)NC(=O)CSc2n[nH]c(N)n2)cc1	inconclusive: 21.3 µM [inhibitor, partial curve, poor fit]	
CCOc1ccccc1NC(=O)c1cc2ccc3cccnc3c2[nH]1	inconclusive: 2.39 µM [inhibitor, partial curve]	
CCN(Cc1ccccc1)C(=O)c1cc2ccc3cccnc3c2[nH]1	active: 9.53 µM	
NNC(=O)c1nn(-c2ccc(Cl)cc2)cc1O	active: 13.5 µM	
COc1ccc(-c2nnc(NC(=O)c3cc(Cl)ccc3Cl)o2)cc1	inconclusive: 21.3 µM [inhibitor, single point]	
Fc1ccccc1CNc1ccc(Cl)cc1	inconclusive: 21.3 µM [inhibitor, single point]	
O=C(O)C1CCN(c2ccccc2[N+](=O)[O-])CC1		inactive: 4.58%
Cc1ccc(-c2noc(-c3ccno3)n2)cc1	inconclusive: 12 µM [inhibitor, partial curve, poor fit]	
CCc1ccc(NS(=O)(=O)c2ccc3[nH]cc(C(=O)N4CCCCCC4)c(=O)c3c2)cc1	inconclusive: 7.57 µM [inhibitor, partial curve]	
C=CCNC(=S)NCC		inactive: 3.3%
CCc1cccc(NC(=O)c2sc3nc[nH]c(=O)c3c2C)c1	inconclusive: 37.9 µM [inhibitor, partial curve, poor fit]	
NC(=O)c1c(NC(=O)c2ccccc2F)sc2c1CCCC2	active: 1.9 µM	
CCOC(=O)Cc1ccc(NC(=O)N2CCC(CN3CCC(C)CC3)CC2)cc1		inactive: -6.35%
COc1cc(C(=O)Nc2ccc(-n3cnnn3)c(C)c2)cc(OC)c1OC	inconclusive: 23.9 µM [inhibitor, partial curve, poor fit]	
O=C(NC1CCCCC1)c1sc(=S)n2c1[nH]c(=O)c1ccccc12	inconclusive: 23.9 µM [inhibitor, single point]	
CN1CCN(c2ccc(NC(=O)c3ccc4c(c3)[nH]c(=O)n4Cc3ccc(F)cc3)cc2)CC1	inconclusive: 26.9 µM [inhibitor, partial curve, poor fit]	
Nc1ccccc1-c1nnn(CC(=O)Nc2ccc3c(c2)OCCO3)n1	inconclusive: 30.1 µM [inhibitor, partial curve, poor fit]	
COc1ccc(/C=C\C(=O)c2c(O)ccc3c(C)cc(=O)oc23)cc1OC		inactive: 2.66%
O=c1cc2oc3cc(O)c(O)cc3c(-c3ccccc3[N+](=O)[O-])c-2cc1O	inconclusive: 12 µM [inhibitor, partial curve]	
Cc1ccccc1Nc1c(-c2ccccc2O)nc2sccn12		inactive: 0.992%
NC(=Nc1ccc(Br)cc1)c1ccccc1	inconclusive: 19 µM [inhibitor, partial curve]	
CCOC(=O)C1CN(S(=O)(=O)c2ccc(F)cc2)C1		inactive: -0.508%
COc1ccccc1-c1noc(CCC(=O)Nc2cccc(C)c2)n1	inconclusive: 19 µM [inhibitor, partial curve, poor fit]	
COc1ccccc1N(Cc1ccccc1)S(=O)(=O)c1cccc(C(=O)Nc2ccc(C(C)=O)cc2)c1	inconclusive: 26.9 µM [inhibitor, partial curve, poor fit]	

Compound	Potency	activity change, negative = inhibition
Cc1cc(N2CCOCC2)nc(SCc2ccc(Cl)cc2Cl)n1	inconclusive: 37.9 µM [inhibitor, partial curve, poor fit]	
Cc1cccc(OCCC(=O)OCc2csc(CC(=O)Nc3ccccc3C)n2)c1		inactive: -1.32%
COc1ccc(Cn2c(C(=O)O)c(CNCCc3cccs3)c3ccc(OC)cc32)cc1		inactive: -1.08%
Cc1cccc(NC(=O)c2ccc(CN3CCN(Cc4ccccc4)CC3)cc2)c1	inconclusive: 26.9 µM [inhibitor, single point]	
COc1ccc(/C=C2\SC(=S)N(CCC(=O)N3CCCCC3)C2=O)cc1	inconclusive: 23.9 µM [inhibitor, partial curve, poor fit]	
Cc1oc2ncn(C)c(=O)c2c1C(=O)N1CCN(c2ccc(Cl)cc2)CC1		inactive: -6.28%
C/C(=N\NC(=O)C(N)=O)c1ccc2c(c1)OCCO2	inconclusive: 19 µM [inhibitor, partial curve, poor fit]	
Cc1ccc(S(=O)(=O)Oc2ccc(/C=C(/NC(=O)c3ccccc3)C(=O)O)cc2)cc1	inconclusive: 33.8 µM [inhibitor, single point]	
O=C1CC(c2ccccc2Cl)CC(O)=C1C=Nc1ccccc1 (stereo not drawn)	inconclusive: 26.9 µM [inhibitor, single point]	
CCc1ccc(OCC(=O)NNC(=O)C2CCC2)cc1		inactive: -3.2%
Cc1ccccc1C(=O)NNC(=O)C12CC3CC(CC(C3)C1)C2		inactive: 1.75%
O=C(N/N=C/C1CC=CCC1)c1cc(Br)ccc1O (stereo not drawn)	active: 13.5 µM	
Cc1cccc(C(=O)C2CCN(S(=O)(=O)c3cccc(C(=O)O)c3)CC2)c1		inactive: 6.09%
O=C(NCC1CCCO1)C(Cc1ccccc1)N1C(=O)C2C3C=CC(C4CC34)C2C1=O (stereo not drawn)		inactive: 3.39%
COc1ccc(N=C2NC(=O)/C(=C\C=C\c3ccco3)S2)cc1	inconclusive: 10.7 µM [inhibitor, partial curve, poor fit]	
C/C(=N\NC(=S)NCc1ccccc1)c1ccccc1F	inconclusive: 37.9 µM [inhibitor, partial curve, poor fit]	
COc1ccc(C(=O)OCc2cc(=O)n3c(C)csc3n2)cc1F	inconclusive: 2.39 µM [inhibitor, full curve]	
COc1cc2c(cc1NC(=O)COc1ccccc1OC)oc1ccccc12		inactive: 3.05%
Cc1cccc(/C(N)=N/OC(=O)C23CC4CC(CC(C4)C2)C3)c1	active: 4.26 µM	
COc1ccc(C(=O)NCC(c2cccnc2)N2CCN(c3ccccc3F)CC2)cc1OC (stereo not drawn)		inactive: -1.8%
Cc1ccsc1/C=N/Nc1ccc(C(=O)O)cc1	active: 0.269 µM	
CC(=O)N(Cc1cccs1)Cc1cc2ccc(C)c(C)c2nc1Cl		inactive: -11.4%
O=[N+]([O-])c1ccc(N/N=C/c2ccc(O)c(O)c2O)c(S(=O)(=O)N2CCOCC2)c1	inconclusive: 21.3 µM [inhibitor, partial curve]	
